The list shows a part of the results. These are further read-outs of the screen, such as a control signal, another cell line or another target. No call is given for them.
Target: GTPase KRas (Homo sapiens) (UniProt P01116)
Experiment: Cysteine mutants labelled by reactive fragments (mass read-out) (AID 2202238)
Set-up: protein at 5 µM with 500 µM competing thiol for 1.5 h
Settings: KRAS G12D cysteine mutants, disulfide tethering, MALDI-TOF labeling, stronger effect = higher value, fragment at 500 µM
[1] = measured here: G75C mutant labeling
[2] = measured here: H94C mutant labeling
[3] = measured here: I36C mutant labeling
[4] = measured here: L120C mutant labeling
[5] = measured here: M67C mutant labeling
[6] = measured here: M72C mutant labeling
[7] = measured here: N86C mutant labeling
[8] = measured here: P121C mutant labeling
[9] = measured here: S122C mutant labeling
[10] = measured here: S136C mutant labeling
[11] = measured here: G60C mutant labeling
[12] = measured here: N26C mutant labeling

Sequence of UniProt P01116 (P01116 whole entry, looked up, the tested form may be a part): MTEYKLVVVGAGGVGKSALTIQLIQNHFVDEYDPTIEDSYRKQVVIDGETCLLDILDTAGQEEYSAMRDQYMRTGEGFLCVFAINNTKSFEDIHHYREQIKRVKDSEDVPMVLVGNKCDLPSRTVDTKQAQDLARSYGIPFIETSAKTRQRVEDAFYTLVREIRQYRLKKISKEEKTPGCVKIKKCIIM

| Compound | percent labeling [1] | percent labeling [2] | percent labeling [3] | percent labeling [4] | percent labeling [5] | percent labeling [6] | percent labeling [7] | percent labeling [8] | percent labeling [9] | percent labeling [10] | percent labeling [11] | percent labeling [12] |
| --- | --- | --- | --- | --- | --- | --- | --- | --- | --- | --- | --- | --- |
| COc1ccc(CCN(C)C(=O)CCS)cc1OC | 14.2% | 37.7% | 38.8% | 29% | 40.6% | 26.3% | 23.3% | 33.5% | 37.5% | 60.1% |  |  |
| Cn1nccc1C1(O)CN(C(=O)CCS)C1 | 13.6% | 21.3% | 27.8% | 17.2% | 30.3% | 16% | 20.4% | 28.9% | 34.1% | 40.2% |  |  |
| O=C(Cc1scnc1-c1ccccc1)NCCS | 8.7% | 27.2% | 26% | 38.8% | 52.5% | 29.7% | 23.5% | 31.2% | 26.6% | 47.4% | 38.3% | 36.5% |
| Cn1cc(-c2nc(C(=O)NCCS)cs2)cn1 | 27.7% | 40% | 25.6% | 47% | 27.9% | 56.8% | 27% | 24.1% | 25.4% | 46.5% | 32.1% | 53.7% |
| O=C(Cc1cscc1Br)NCCS | 24.4% | 45.6% | 33.5% | 39.9% | 35.5% | 63.8% | 38.5% | 32.7% | 32.7% | 51.3% | 59.7% | 41.7% |
| COc1ccc(-c2oc(C)cc2C(=O)NCCS)cc1 | 17.3% | 12.8% | 8% | 24.9% | 12.1% | 19.8% | 9.6% | 14% | 10.7% | 19% | 40.6% | 24.5% |
| O=C(CCS)N(CCO)Cc1cccnc1Cl | 10.4% | 28.3% | 33.2% | 38.8% | 36.6% | 21.8% | 13.9% | 36.1% | 34.8% | 51.5% |  |  |
| O=C(CCS)N1CCc2[nH]cc(Br)c(=O)c2C1 | 11% | 30.3% | 42.3% | 29.8% | 31.2% | 18.3% | 28.5% | 22.2% | 23.9% | 48.5% |  |  |
| O=C(Cc1ccccc1OC1CCOC1)NCCS (configuration not stated) | 10.9% | 36.3% | 24.2% | 44.7% | 34.6% | 19% | 26.7% | 30.2% | 32.8% | 44.2% | 34.4% | 33.3% |
| O=C(CCS)NCc1ccc(N2CCCNC2=O)cc1 | 9.1% | 34.3% | 37.1% | 43.2% | 38.4% | 20.3% | 21.1% | 31.6% | 32.6% | 45.7% |  |  |
| Cc1nnc2ccc(C3CCN(C(=O)CCS)CC3)nn12 | 13% | 35.3% | 38.3% | 30.4% | 51.3% | 28.6% | 18.6% | 32.8% | 27.7% | 54.2% |  |  |
| O=C(CCc1ccnc2ccccc12)NCCS | 19.6% | 26.5% | 30% | 29% | 30.5% | 38.3% | 18.4% | 29.5% | 20.6% | 44.7% | 40.7% | 33.7% |
| O=C(CCS)N1CCC(O)(c2ccccc2)CC1 | 17.7% | 33.9% | 36.3% | 30.3% | 36.4% | 51.6% | 33.2% | 37.2% | 37.3% | 66.8% |  |  |
| CN(C)CCOc1ccccc1NC(=O)CCS | 17.9% | 45.1% | 41.8% | 27.3% | 43.6% | 33.5% | 29.9% | 33.1% | 31.8% | 51.7% |  |  |
| CC1CN(S(C)(=O)=O)C(C)CN1C(=O)CCS (configuration not stated) | 8.5% | 34.5% | 41.4% | 34.5% | 39.2% | 16.2% | 17.9% | 32% | 36.6% | 49.6% |  |  |
| Cc1cccc(C)c1N1CCN(C(=O)CCS)CC1 | 5.5% | 13.5% | 16.4% | 0% | 19.4% | 20.2% | 9.4% | 16.2% | 17.5% | 34.6% |  |  |
| CCN(Cc1nc2ccsc2c(=O)[nH]1)C(=O)CCS | 14% | 36.6% | 38.8% | 40.4% | 40.7% | 36.9% | 29.3% | 45.5% | 41.1% | 63.1% |  |  |
| Cn1cc(C(=O)NCCS)c2nc(-c3ccccc3)ccc21 | 25% | 35.2% | 9.9% | 12.5% | 16.7% | 58.3% | 12.3% | 10.1% | 6.2% | 15.9% | 31.4% | 18.6% |
| CCOCc1nc(C)c(C(=O)NCCS)s1 | 14% | 31.1% | 20.6% | 29.7% | 31.1% | 23.8% | 18.7% | 28.4% | 32.2% | 51.8% | 29.5% | 42.8% |
| O=C(NCCS)c1ccc(OCc2ccccc2)cn1 | 11.2% | 13.7% | 11.9% | 20.9% | 16.4% | 42.8% | 15.4% | 14.4% | 12.6% | 19.9% | 20.7% | 25.1% |
| Cc1c(NC(=O)CCS)cnn1C1CCCC1 | 16.3% | 34.7% | 41.9% | 36.8% | 33.7% | 31.9% | 36.9% | 38.4% | 40.4% | 62.4% |  |  |
| O=C(CCS)NC1(CO)CC2(CCOCC2)C1 | 9.6% | 15.5% | 12.9% | 14.1% | 25.1% | 8.1% | 6.4% | 23% | 26.2% | 35.8% |  |  |
| O=C(CC1CCS(=O)(=O)C1)NCCS (configuration not stated) | 16.3% | 28.7% | 25.9% | 30.5% | 25.4% | 14.9% | 28% | 32.7% | 36.5% | 37.5% | 21.9% | 32.3% |
| O=C(NCCS)C1CC(c2ccc(C(F)(F)F)cc2)C1 (configuration not stated) | 13.4% | 19.7% | 10.9% | 16.4% | 11.6% | 25.4% | 12.6% | 13.7% | 9.3% | 14.5% | 27.1% | 25.9% |
